Assay results: article PMC4336329 (PLoS ONE, 2015)
About 14,000 (4.5%) of roughly 310,000 compounds showed an effect of 50% or more. Effects have a minus sign here. The list shows a part of the results.

These compounds were tested against human ether-à-go-go-related gene (hERG) potassium channel (human, UniProt Q12809) (assay: primary screen, population patch clamp on CHO cells stably expressing hERG).
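Note: peak tail current of the secondary pulse compared with the same well before compound.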

Chain of human ether-à-go-go-related gene (hERG) potassium channel (Q12809 whole entry, looked up): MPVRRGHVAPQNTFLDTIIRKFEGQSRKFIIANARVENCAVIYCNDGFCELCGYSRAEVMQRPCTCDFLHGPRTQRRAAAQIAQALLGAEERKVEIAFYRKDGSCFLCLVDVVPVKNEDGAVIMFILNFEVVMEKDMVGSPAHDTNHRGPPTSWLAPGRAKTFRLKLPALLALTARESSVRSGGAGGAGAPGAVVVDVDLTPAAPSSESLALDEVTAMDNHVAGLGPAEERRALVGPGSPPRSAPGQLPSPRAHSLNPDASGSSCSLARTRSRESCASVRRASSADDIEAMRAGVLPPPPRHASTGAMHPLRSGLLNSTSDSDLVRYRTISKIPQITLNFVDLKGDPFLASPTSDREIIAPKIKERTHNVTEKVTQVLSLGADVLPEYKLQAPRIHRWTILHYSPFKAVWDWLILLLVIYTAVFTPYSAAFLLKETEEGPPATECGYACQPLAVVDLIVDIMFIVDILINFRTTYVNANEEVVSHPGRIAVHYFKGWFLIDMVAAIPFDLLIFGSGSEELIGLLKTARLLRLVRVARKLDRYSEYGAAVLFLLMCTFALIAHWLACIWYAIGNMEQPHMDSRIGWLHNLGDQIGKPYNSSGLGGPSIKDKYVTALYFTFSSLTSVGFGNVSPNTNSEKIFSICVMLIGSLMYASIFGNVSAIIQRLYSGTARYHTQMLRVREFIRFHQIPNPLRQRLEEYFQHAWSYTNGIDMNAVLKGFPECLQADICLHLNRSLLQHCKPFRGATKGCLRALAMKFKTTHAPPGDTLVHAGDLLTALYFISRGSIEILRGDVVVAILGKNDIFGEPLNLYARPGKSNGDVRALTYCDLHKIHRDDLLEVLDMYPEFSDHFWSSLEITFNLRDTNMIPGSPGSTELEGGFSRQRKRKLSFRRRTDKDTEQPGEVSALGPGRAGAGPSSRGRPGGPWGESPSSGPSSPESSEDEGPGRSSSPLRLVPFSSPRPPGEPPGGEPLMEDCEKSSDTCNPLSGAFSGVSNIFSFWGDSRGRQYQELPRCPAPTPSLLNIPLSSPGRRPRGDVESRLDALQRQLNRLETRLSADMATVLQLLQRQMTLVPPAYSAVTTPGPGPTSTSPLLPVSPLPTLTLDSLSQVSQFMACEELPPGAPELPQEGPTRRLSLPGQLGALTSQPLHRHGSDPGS

Compound	hERG current change (%, negative = inhibition) at 10uM
COc1ccccc1/C=N/NC(=O)CC(=O)NC1CCCCC1	17.8%
COc1cc(NS(=O)(=O)c2ccc(NC(=S)NC(=O)c3cccs3)cc2)nc(OC)n1	-21.2%
CCOC(=O)C1(CC2CCCCO2)CCN(Cc2nc(-c3cccs3)oc2C)CC1 (stereo not shown)	-67.6%
CCOC(=O)C1CCCN(S(=O)(=O)Cc2ccccc2Cl)C1 (stereo not shown)	2.84%
COc1ccc(-c2nc(CS(=O)CC(=O)NCc3ccc(F)cc3)c(C)o2)cc1 (stereo not shown)	-11.9%
COc1cc(O)c(C(CC(=O)N2CCCC2)c2ccc(N(C)C)cc2)c(OC)c1 (stereo not shown)	19.3%
CC1=NN(c2ccccc2)C(=O)C1=C(C)C	17%
CN1C(=O)C(=Cc2ccc(N3CCCCC3)o2)C(=O)N(C)C1=S	3.71%
Cc1ccccc1NC(=O)CSc1nnc(CNC(=O)c2ccc3c(c2)OCO3)n1C	1.34%
CC(C)CN(C(=O)CN1CCCCCC1)c1c(N)n(CC(C)C)c(=O)[nH]c1=O	23.9%
CCCCOc1ccc(-c2nnn(C(C)C(=O)OCC)n2)cc1 (stereo not shown)	-13.9%
CCOC(=O)/C=C/C(=O)Nc1ccc(S(=O)(=O)Nc2cc(C)on2)cc1	9.75%
CCOc1c2ccc(C(=O)NCc3ccccc3OC)cc2nn1CC	11.5%
Cc1nc2sc3c(c2c(=O)n1NC(=O)CCl)CCCC3	-10.8%
CC(=O)c1c(C)oc2ccc(NS(=O)(=O)c3ccc(O)c(C(=O)O)c3)cc12	6.41%
CC(C)N1C(=S)SC(C)(C)C1NO (stereo not shown)	4.75%
CCOc1ccccc1OCCCC(=O)Nc1ccc(OC)nc1	9.71%
COC(=O)c1ccc(C(c2c(N)n(Cc3ccccc3)c(=O)n(C)c2=O)N2CCOCC2)cc1 (stereo not shown)	-57.9%
CCOC(=O)C1=C(C)OC(N)=C(C#N)C1c1c(C)nn(-c2ccccc2)c1Cl (stereo not shown)	-12.5%
COC(=O)c1ccccc1NC(=O)CSc1nnc(-c2cccc(NC(C)=O)c2)n1C	-3.68%
CCNC(=O)c1ccccc1-c1nc(-c2ccccc2OC)no1	-0.178%
CCOc1ccc(NC(=O)NC2CCCc3ccccc32)cc1 (stereo not shown)	32.1%
COc1ccc(Cl)cc1-c1nc(N)nc(N(C)C)n1	-9.28%
O=S(=O)(c1ccc(F)cc1)N1CCC(c2nc3ccccc3[nH]2)CC1	-2.46%
CCOC(=O)C1CCCN(C(=O)/C=C/c2ccc([N+](=O)[O-])cc2)C1 (stereo not shown)	-64.8%
